# Reference: the supplement of paper PMC8728848
# Some of the results follow.
# B1: GS7807P-bth-537-23-537 (Bacteroides thetaiotaomicron) (protein)
# chain: NYENINSNPYEAPDLSADGYALGSAMNNLAGCVVSPDVNTAQFTDCLLGGPLGGYFADSNAGFTETISNFNPKDDWSRVFLKSDKIIPTLYSNLTQVKLVSQNTNDPVPYAIAQVIKVAAMHRVTDAFGPIPYSQIGANGEIATPYDSQEVTYNTFFDELNAAIATLNENSNEQLVPTADYIYKGDVKKWIRFANSLKLRLAIRIAYANPVKAQQMAEEAVNPANGGVIESNADNATWNYFETSQNPIYVATRYNQVQTSDHGGVPCLTGGDTHAAADIICYMNGYKDNRREKFFTKSEWAGQDYVGMRRGIVIPELKTTGHKYSGVNIAPTSPLYWMNAAEVAFLRAEGQAVFNFSMGGTAESFYNQGIRLSFEQWGADGVEDYLKDDVNKPTAYTDPAGTNTYQNALSNITIKWNDSADKEEKQERIIVQKWIANWQLGNEAWADFRRTGYPKLIPVKENKSGGVVDSEKGARRMPYPLDEFVSNKANVEYAIANYLHGADNMATDVWWASKK
# Tests used:
# Assay in all cases: glycan array binding signal (z-score within array); higher = stronger binding
# Conditions in all cases: glycan notation: IUPAC condensed, linker removed
# [1] = target: Neu5Ac(a2-6)Gal(b1-4)GlcNAc(b1-3)Gal(b1-4)GlcNAc(b1-3)Gal(b1-4)GlcNAc(b1-2)Man(a1-3)[Neu5Ac(a2-6)Gal(b1-4)GlcNAc(b1-3)Gal(b1-4)GlcNAc(b1-3)Gal(b1-4)GlcNAc(b1-2)Man(a1-6)]GalNAc
# In short: (§1)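 The binding signal is a Z-score computed within each array and averaged over linkers. Arrays of the same protein sequence at different concentrations or buffers were also averaged together. Data originate from 3228 arrays in the Consortium for Functional Glycomics database, kept only where the protein sequence was available.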
# [2] = target: Neu5Ac(a2-6)Gal(b1-4)GlcNAc(b1-3)Gal(b1-4)GlcNAc(b1-3)GalNAc
# In short: as §1
# [3] = target: Neu5Ac(a2-6)Gal(b1-4)GlcNAc(b1-3)Gal(b1-4)GlcNAc(b1-3)[Neu5Ac(a2-6)Gal(b1-4)GlcNAc(b1-3)Gal(b1-4)GlcNAc(b1-6)]GalNAc
# In short: as §1
# [4] = target: Neu5Ac(a2-6)Gal(b1-4)GlcNAc(b1-3)Gal(b1-4)GlcNAc(b1-6)[Gal(b1-3)]GalNAc
# In short: as §1
# [5] = target: Neu5Ac(a2-6)Gal(b1-4)GlcNAc(b1-3)Gal(b1-4)[Fuc(a1-3)]GlcNAc(b1-3)Gal(b1-4)[Fuc(a1-3)]GlcNAc
# In short: as §1
# [6] = target: Neu5Ac(a2-6)Gal(b1-4)GlcNAc(b1-3)GalNAc
# In short: as §1
# [7] = target: Neu5Ac(a2-6)Gal(b1-4)GlcNAc(b1-3)[Neu5Ac(a2-6)Gal(b1-4)GlcNAc(b1-6)]GalNAc
# In short: as §1
# [8] = target: Neu5Ac(a2-6)Gal(b1-4)GlcNAc(b1-6)GalNAc
# In short: as §1
# [9] = target: Neu5Ac(a2-6)Gal(b1-4)GlcNAc(b1-6)[Gal(b1-3)GlcNAc(b1-3)]Gal(b1-4)Glc
# In short: as §1
# [10] = target: Neu5Ac(a2-6)Gal(b1-4)GlcNAc(b1-6)[Gal(b1-3)]GalNAc
# In short: as §1
# [11] = target: Neu5Ac(a2-6)Gal(b1-4)GlcNAc6S
# In short: as §1
# Neu5Ac(a2-6)GalNAc = target: Neu5Ac(a2-6)GalNAc
# In short: as §1
# [12] = target: Neu5Ac(a2-6)GalNAc(b1-4)GlcNAc
# In short: as §1
# [13] = target: Neu5Ac(a2-6)GalNAc(b1-4)GlcNAc6S
# In short: as §1
# [14] = target: Neu5Ac(a2-6)GlcNAc(b1-4)GlcNAc
# In short: as §1
# [15] = target: Neu5Ac(a2-6)GlcNAc(b1-4)GlcNAc(b1-4)GlcNAc
# In short: as §1
# Neu5Ac(a2-8)Neu5Ac = target: Neu5Ac(a2-8)Neu5Ac
# In short: as §1
# [16] = target: Neu5Ac(a2-8)Neu5Ac(a2-3)Gal(b1-3)GalNAc(b1-4)[Neu5Ac(a2-3)]Gal(b1-4)Glc
# In short: as §1
# [17] = target: Neu5Ac(a2-8)Neu5Ac(a2-3)Gal(b1-3)GalNAc(b1-4)[Neu5Ac(a2-8)Neu5Ac(a2-3)]Gal(b1-4)Glc
# In short: as §1
# [18] = target: Neu5Ac(a2-8)Neu5Ac(a2-3)Gal(b1-4)Glc
# In short: as §1
# [19] = target: Neu5Ac(a2-8)Neu5Ac(a2-3)Gal(b1-4)GlcNAc
# In short: as §1
# [20] = target: Neu5Ac(a2-8)Neu5Ac(a2-3)[Gal(b1-3)GalNAc(b1-4)]Gal(b1-4)Glc
# In short: as §1
# [21] = target: Neu5Ac(a2-8)Neu5Ac(a2-3)[GalNAc(b1-4)]Gal(b1-4)Glc
# In short: as §1
# [22] = target: Neu5Ac(a2-8)Neu5Ac(a2-8)Neu5Ac
# In short: as §1
# [23] = target: Neu5Ac(a2-8)Neu5Ac(a2-8)Neu5Ac(a2-3)Gal(b1-4)Glc
# In short: as §1
# [24] = target: Neu5Ac(a2-8)Neu5Ac(a2-8)Neu5Ac(a2-3)[Gal(b1-3)GalNAc(b1-4)]Gal(b1-4)Glc
# In short: as §1
# [25] = target: Neu5Ac(a2-8)Neu5Ac(a2-8)Neu5Ac(a2-3)[GalNAc(b1-4)]Gal(b1-4)Glc
# In short: as §1
# [26] = target: Neu5Ac(a2-8)Neu5Ac(a2-8)Neu5Ac(a2-8)Neu5Ac(a2-3)[GalNAc(b1-4)]Gal(b1-4)Glc
# In short: as §1
# [27] = target: Neu5Ac(a2-8)Neu5Gc(a2-3)Gal(b1-4)GlcNAc
# In short: as §1
# [28] = target: Neu5Ac(b2-6)Gal(b1-4)GlcNAc
# In short: as §1
# Neu5Ac(b2-6)GalNAc = target: Neu5Ac(b2-6)GalNAc
# In short: as §1
# [29] = target: Neu5Ac9Ac(a2-3)Gal(b1-3)GlcNAc
# In short: as §1
# [30] = target: Neu5Ac9Ac(a2-3)Gal(b1-4)GlcNAc
# In short: as §1
# [31] = target: Neu5Ac9Ac(a2-6)Gal(b1-4)GlcNAc
# In short: as §1
# [32] = target: Neu5Gc(a2-3)Gal(b1-3)GlcNAc
# In short: as §1
# [33] = target: Neu5Gc(a2-3)Gal(b1-3)[Fuc(a1-4)]GlcNAc
# In short: as §1
# Neu5Gc(a2-3)Gal(b1-4)Glc = target: Neu5Gc(a2-3)Gal(b1-4)Glc
# In short: as §1
# [34] = target: Neu5Gc(a2-3)Gal(b1-4)GlcNAc
# In short: as §1
# [35] = target: Neu5Gc(a2-3)Gal(b1-4)GlcNAc(b1-3)Gal(b1-4)GlcNAc(b1-2)Man(a1-3)[Neu5Gc(a2-3)Gal(b1-4)GlcNAc(b1-3)Gal(b1-4)GlcNAc(b1-2)Man(a1-6)]Man(b1-4)GlcNAc(b1-4)GlcNAc
# In short: as §1
# [36] = target: Neu5Gc(a2-3)Gal(b1-4)[Fuc(a1-3)]GlcNAc
# In short: as §1
# [37] = target: Neu5Gc(a2-6)Gal(b1-4)GlcNAc
# In short: as §1
# Neu5Gc(a2-6)GalNAc = target: Neu5Gc(a2-6)GalNAc
# In short: as §1
# [38] = target: Neu5Gc(a2-8)Neu5Ac(a2-3)Gal(b1-4)GlcNAc
# In short: as §1
# [39] = target: Neu5Gc(a2-8)Neu5Gc(a2-3)Gal(b1-4)GlcNAc
# In short: as §1
# [40] = target: Neu5Gc(a2-8)Neu5Gc(a2-3)Gal(b1-4)GlcNAc(b1-3)Gal(b1-4)GlcNAc
# In short: as §1
binder,measurement,setting,value
B1,glycan array binding signal (z-score),[1],-0.124
same,glycan array binding signal (z-score),[2],-0.372
same,glycan array binding signal (z-score),[3],-0.089
same,glycan array binding signal (z-score),[4],1.39
same,glycan array binding signal (z-score),[5],1.22
same,glycan array binding signal (z-score),[6],-0.099
same,glycan array binding signal (z-score),[7],0.841
same,glycan array binding signal (z-score),[8],0.024
same,glycan array binding signal (z-score),[9],0.485
same,glycan array binding signal (z-score),[10],0.929
same,glycan array binding signal (z-score),[11],-0.39
same,glycan array binding signal (z-score),Neu5Ac(a2-6)GalNAc,-0.393
same,glycan array binding signal (z-score),[12],-0.396
same,glycan array binding signal (z-score),[13],-0.331
same,glycan array binding signal (z-score),[14],-0.2
same,glycan array binding signal (z-score),[15],-0.389
same,glycan array binding signal (z-score),Neu5Ac(a2-8)Neu5Ac,-0.329
same,glycan array binding signal (z-score),[16],-0.358
same,glycan array binding signal (z-score),[17],0.021
same,glycan array binding signal (z-score),[18],-0.374
same,glycan array binding signal (z-score),[19],-0.38
same,glycan array binding signal (z-score),[20],-0.023
same,glycan array binding signal (z-score),[21],1.89
same,glycan array binding signal (z-score),[22],-0.358
same,glycan array binding signal (z-score),[23],-0.299
same,glycan array binding signal (z-score),[24],-0.382
same,glycan array binding signal (z-score),[25],0.411
same,glycan array binding signal (z-score),[26],-0.311
same,glycan array binding signal (z-score),[27],-0.362
same,glycan array binding signal (z-score),[28],0.513
same,glycan array binding signal (z-score),Neu5Ac(b2-6)GalNAc,-0.332
same,glycan array binding signal (z-score),[29],-0.266
same,glycan array binding signal (z-score),[30],-0.382
same,glycan array binding signal (z-score),[31],-0.397
same,glycan array binding signal (z-score),[32],-0.386
same,glycan array binding signal (z-score),[33],-0.379
same,glycan array binding signal (z-score),Neu5Gc(a2-3)Gal(b1-4)Glc,-0.321
same,glycan array binding signal (z-score),[34],-0.371
same,glycan array binding signal (z-score),[35],-0.361
same,glycan array binding signal (z-score),[36],-0.301
same,glycan array binding signal (z-score),[37],-0.396
same,glycan array binding signal (z-score),Neu5Gc(a2-6)GalNAc,-0.023
same,glycan array binding signal (z-score),[38],-0.376
same,glycan array binding signal (z-score),[39],-0.353
same,glycan array binding signal (z-score),[40],-0.358
